Measurements published in the supplement of paper PMC11417369.
The other results are listed elsewhere or left out.

Test system: PfSIP2 AP2 domain 1 (GST-tagged)
Assay: gcPBM binding intensity (ln(normalized median fluorescence intensity)); higher = stronger DNA binding
Summary of the method: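 GST-tagged P. falciparum DNA-binding domains, expressed in E. coli (about 25 μg on average), were applied for 1 h to an Agilent 4 × 180k array of primer-extended double-stranded 36-bp intergenic genomic probes plus negative controls. The binding buffer was 1× PBS with 1% milk, 0.2 mg/ml BSA, 0.5% salmon testes DNA and 0.03% Triton X-100. Bound protein was detected with Alexa488 anti-GST antibody and scanned at 488 nm. Binding intensity is the highest Masliner-normalised natural-log median intensity across replicate spots of either probe orientation.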

Row | Sequence | gcPBM binding intensity (ln)
1 | TATACATACACATACACACATACACCCATACACATA [CACACA_site1746] | 7.24
2 | GGTTATATATTTTTTGCACACCAAAAAAGAGAATAT [CACACA_site2731] | 7.69
3 | ATCCTAATATTGAACTGTACCTTATATGTTATTATA [XGTACX_site1014] | 7.12
4 | TATATATATATATATACACACATATATACATATATA [CACACA_site4043] | 9.36
5 | GGATATAACAAACACACACACACATATATATATATT [CACACA_site4141] | 7.22
6 | AATACATATAATACAACACACAAGTAATATAAACCT [CACACA_site3597] | 7.03
7 | TTTAAATGAAAAAAAGGTACACAATATTATTCTTAT [XGTACX_site8612] | 6.98
8 | AAAAAAAAAAAACACACACACACACTAGTATATAAA [CACACA_site4783] | 7.26
9 | AAGAAAAAAAAAAATATATATACATATATATATATA [TGCATGCA_negctrl_site485] | 9.11
10 | AATACTTATTATGAAACACACACCAAAACTACATAA [CACACA_site270] | 7.17
11 | AATGTATATATATATATATATATATATATTTATTTA [CACACA_negctrl_site113] | 7.65
12 | AAGAAAATAGAAAATACACACAGCAAACAGAGGAAT [CACACA_site3785] | 7.09
13 | ATATATATATATTTATGTACATATATTTTTTTTTTT [XGTACX_site8558] | 8.71
14 | AATAAATAAATACATCTCAGTATATAAACAAACAAA [CACACA_negctrl_site1604] | 6.99
15 | ATATTTAATTAAAAGAGTACTTAAATAAAATAAATG [XGTACX_site2149] | 6.95
16 | AAGCCTTAAAAGGAAAGTACGTATATATATATATAT [XGTACX_site8559] | 9.41
17 | ATGAAACATGTATATTGTACTCTGGATCAATTTAAT [XGTACX_site6413] | 7.16
18 | AAATTTATTATATATACATGCAATCATAAATAATGT [TGCATGCA_site539] | 7.04
19 | AAAAAGGATAAACACACACACACACCGATATATATA [CACACA_site8206] | 7.42
20 | TTATTTTTGTGTAAGGTGCTATATATAATGTTTTTA | 8.24
21 | AAATGTGATATAAGTACACACACATATGTATATATA [CACACA_site8539] | 7.18
22 | AACGAAATCATCAAGTGTACTAGTTTATTATTAATA [XGTACX_site6161] | 6.79

Row | Sequence | gcPBM binding intensity (ln)
23 | TATGTATATTATATGACACACATTTATATATATATA [CACACA_site1167] | 9.22
24 | AATAAATAAATAAATATATATATATATATATATATG [CACACA_negctrl_site899] | 7.69
25 | TTTTGTTGATTTATATCTGTAGGGTTTAATATAACA [XGTACX_negctrl_site174] | 7.01
26 | AAAATAAAATAAAACACAAAAAAATAAAACAAAATA [CACACA_negctrl_site16] | 7.11
27 | TATATATCCATGTGTACACACAAAAAAAAATAAAGT [CACACA_site7107] | 7.63
28 | AAATATGTTTATATATGTACTTATAATTCAAAATAT [XGTACX_site2167] | 7.01
29 | TCTATGCGTTTTAATAGTACATATAAAATTTATACA [XGTACX_site6986] | 7
30 | AAATAAAATATATACATATATATATTATTTAGTAAT [XGTACX_negctrl_site375] | 6.91
31 | CCATGTCACAATTTTTCACACACAAAATTTATATAC [CACACA_site8628] | 7.39
32 | ATATACACACATAAGTGTACTTATATTTCATATATA [XGTACX_site8646] | 6.9
33 | TAATTAACAAACTATAGTACACAAAATACTTCATAT [XGTACX_site6375] | 7.12
34 | TTAACTATGAATACATGTACATGAAAATATTTCAAT [XGTACX_site1069] | 6.9
35 | GGCAAATTTATTATACCCACATACATACATACATAC [XGTACX_negctrl_site186] | 8.07
36 | AAATTAATAAAAAATGGTACACAAAATGGATGTATA [XGTACX_site1561] | 7.05
37 | AAAATTAAACAAAGTTGTACAAAATAATAATAAAAG [XGTACX_site7515] | 7.23
38 | TTTATATTAATTGATGTGCACTGAAATATTTGTCCA [GTGCAC_site9655] | 10.2
39 | ACCCTATAGGTAACTACACACCGCATATTGTTTACT [CACACA_site7436] | 7.01
40 | ATATAAAAAAATTGCACACATAAATATATACATATA [CACACA_site1218] | 7.41
41 | GATACATAGAAACACACACACATACATATATACATA [CACACA_site3438] | 7.04
42 | TCACAAAAAGAACATTGATATTATTATAAAATCGTC [GTGCAC_negctrl_site177] | 6.87
43 | TTTATGTACAGACATATACACACCTCTATAATATAT [CACACA_site730] | 7.18
44 | AATTATATATTAAAAAGTACAAGTTAATATAATATA [XGTACX_site2737] | 7.12

Row | Sequence | gcPBM binding intensity (ln)
45 | TATTGTAATATTATATATATCTATTATGTATATAAA [CACACA_negctrl_site454] | 6.85
46 | TAATTAAAATTATTTATAAATTAGTATATTTCTATA [CACACA_negctrl_site663] | 6.71
47 | TTATTATTTTATCGTAGTACACCTAAATTATAAAAC [XGTACX_site5251] | 7.18
48 | TTACAAAAATTTTGTTCACACATAAAAATATGTTAC [CACACA_site5740] | 6.85
49 | ATATATTTTTCAAAATGTACAAATAATTAAATACCA [XGTACX_site875] | 7.08
50 | TAATAAATTATTTTTTATTATTTTAATAACACTTCA [CACACA_negctrl_site3] | 6.62
51 | GTTAGCATATTAAGTTGTACACAATTATTCTTCAAT [XGTACX_site8324] | 7.22
52 | TGGTATTTTGATGATAAAAGGAAATTTTTTTTATAC [XGTACX_negctrl_site111] | 6.84
53 | AACAAAGAAAATACATGTACAAAAAATATTAACGAA [XGTACX_site287] | 7.22
54 | AATATAATATAATGCACACATAAACAAAAAAAAAAA [CACACA_site783] | 7.35
55 | GTAATTAAAATATATACACACAAAGGCTATTAAATA [CACACA_site1011] | 6.96
56 | TATATAAAATATTAATGTACATATAAATATATATAT [XGTACX_site6656] | 8.55
57 | ATTTATGAAAGAAATAGTACACACATAAACATTTGT [XGTACX_site5862] | 6.88
58 | TTTAATACGAATGAGGCACACACCTAGTATACATGC [CACACA_site621] | 6.96
59 | CAAAATAATATATATACACACACACCGATATATATA [CACACA_site8082] | 7.58
60 | TTTAATTTTTTTAAAACACACAAATATATATATATA [CACACA_site3898] | 9.34
61 | TATATTTTAAAATTATGTACATATATAGATAAATGT [XGTACX_site1349] | 7.07
62 | ATATAAATATAGTGTGCACACACATAATATATATAT [CACACA_site8713] | 8.66
63 | ATATATATATATAATACACACATCATAAAATATGTA [CACACA_site2518] | 9.1
64 | AAAATAAATTGTGAAGGTACACAAATTATTATGTGG [XGTACX_site4196] | 6.92
65 | AAATACAAAATTGTTACACACATATTAATTATGACA [CACACA_site476] | 6.89
66 | TATCATCATGTATGTACACACATACAGATATTATGT [CACACA_site4888] | 7.04

Row | Sequence | gcPBM binding intensity (ln)
67 | AATCATATTTAGATTACACACAGTTTAAATATTTTA [CACACA_site1263] | 6.75
68 | TATATATATATATATATATATATATATATAATATTA [XGTACX_negctrl_site558] | 9.75
69 | TATTTAAATGGATGCACACATGCATTAAATAAAATA [CACACA_site3433] | 8.43
70 | TGTAATGTTTACAACACACAAATTATAAATACAAAA [CACACA_site5047] | 6.89
71 | TCGATATATAGACACACACACTTTTAATAATTAAAT [CACACA_site7726] | 7.28
72 | TACAAACAGACATATACACACAAAAAAAAAATAAAA [CACACA_site2562] | 7.05
73 | TTATGCAGATAAAAGAGTACATATTCGTTACATACA [XGTACX_site2849] | 7.07
74 | TTAGTAAATACATTTGCACACATTATTTTTTAACAT [CACACA_site5448] | 7.17
75 | GGAAATATAAAATCATGTACATATGTATATATAATT [XGTACX_site5491] | 7.01
76 | TATATATTTTTTTCATGTACTTATTATATATATATA [XGTACX_site5321] | 8.81
77 | ATGAATATATATATTTGTACATATGTATATATATAT [XGTACX_site7527] | 9.19
78 | AGTATAGATGTATACACACACCAAACGTTAAAAAAA [CACACA_site7443] | 6.91
79 | ATTTATTTATTTATATGTACTTAAATGAAAGGAATA [XGTACX_site6024] | 7.52
80 | TTTCAAAATTTTTATTTTAAATAAACATTTATAAAA [CACACA_negctrl_site1588] | 6.9
81 | ACATACATTTTTAAATGTACATATATATATATATAT [XGTACX_site6751] | 9.01
82 | CCGATATAATGGAAAACACACAAAAGATATATATAT [CACACA_site2683] | 8.79
83 | ATATGGCACATATGTACACACGTATAGATAATATTA [CACACA_site5162] | 7.13
84 | AATATTATATGGACGTGTCCACATAAACCTATATAT [XGTACX_site2053] | 7.07
85 | CATTATGTTGTAAATACACACATACAGATACATACA [CACACA_site4565] | 7.1
86 | TAAAGGCAAACAAACACACACACATAAATACAGATA [CACACA_site5204] | 7.01
87 | ATATGCGTTTGCAAATGTACATATTATTTATATATA [XGTACX_site7128] | 7.11
88 | TTTTTTGGTTTTCATGCACACAATTTATAAATCTAT [CACACA_site3106] | 8.65
